Results reported in PubChem BioAssay AID485364 (National Center for Advancing Translational Sciences (NCATS), 2010).
Among all 360,000 compounds or so, about 11,000 (3.1%) were called active. The shares of active, inactive and inconclusive entries below differ from those in the screen. Calls follow the shape of the dose curve; as a rule, active = well fitted inhibition curve with a large enough effect; inconclusive = small, poorly fitted or top-dose-only effect; inactive = no such curve, though single readings can be large or run the other way. Potencies of inconclusive entries are left out as doubtful fits.

Molecular target: Schistosoma mansoni thioredoxin glutathione reductase (TGR) (UniProt Q962Y6)
Experiment: qHTS Assay for the Inhibitors of Schistosoma Mansoni Peroxiredoxins; also: nearly all actives have a fitted effect of over 60% in size
Conditions: purified TGR, DTNB reduction, TNB absorbance 405 nm; series mostly up to 114 µM
Summary of the method: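 First, TGR (20 nM dispensed) and NADPH were mixed with compound. Second, a 15 min room-temperature incubation followed. Third, further NADPH and then DTNB were added to start the reaction. Finally, TNB absorbance was monitored kinetically.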
Potency is read from the fitted curve at half-maximal effect; tags tell the direction and shape of the fitted curve.

| Compound | Potency |
| --- | --- |
| O=C(CN1CCOCC1)N/N=C/c1cccc2ccccc12 | inconclusive [inhibitor, full curve, poor fit] |
| O=C(NCc1ccccc1)c1nc(S(=O)(=O)Cc2ccc(F)cc2)ncc1Cl | active: 5.01 µM |
| CC1CCCCC1NC(=O)c1cccc(NC2=NC3CS(=O)(=O)CC3S2)c1 (stereo not drawn) | inactive |
| CCC(C)N1C(=O)/C(=C\c2ccc(N3CCCCCC3)cc2)C(=O)NC1=S (stereo not drawn) | inconclusive [inhibitor, full curve] |
| O=c1[nH]c(=S)[nH]c(O)c1N=Nc1ccc(-c2ccccc2)cc1[N+](=O)[O-] | inconclusive [inhibitor, full curve] |
| COc1cccc(C2NC(=S)NC3=C2CCc2ccccc23)c1 (stereo not drawn) | inactive |
| CCN(CC(=O)Nc1ccccc1OC)C(=O)c1cccc(-n2cccc2)c1 | inconclusive [inhibitor, single point] |
| CCOC(=O)N1CCN(C(=O)CSc2nc(-c3cccc(C)c3)ns2)CC1 | inconclusive [inhibitor, single point] |
| NS(=O)(=O)c1cccc(NC(=S)NC(=O)C23CC4CC(CC(C4)C2)C3)c1 | inconclusive [inhibitor, partial curve] |
| COc1ccc(CCNC(=S)Nc2ccccc2)cc1 | inactive |
| CC1(C)c2ccccc2N2CC(=O)NC21/C=C/c1ccco1 (stereo not drawn) | active: 7.94 µM |
| CCOc1cc2nc(-c3ccc(OC)c(OC)c3)nc(N3CCOCC3)c2cc1OC | inactive |
| O=C1CC(c2ccccc2Cl)c2c(sc3c(=O)[nH]c(CCl)nc23)N1 (stereo not drawn) | active: 25.1 µM |
| CCN1C(=O)[C@H]2[C@@H](c3ccc(-c4cccc(Cl)c4)c(OC)c3)N[C@@](C)(C(=O)OC)[C@H]2C1=O | inconclusive [inhibitor, partial curve] |
| Cc1cccc(CC(=O)N2CCC(n3nccc3NC(=O)C3CC3)CC2)c1 | inconclusive [inhibitor, full curve, poor fit] |
| COC(=O)c1cc(-c2ccc(C)o2)nc2ccccc12 | inconclusive [inhibitor, single point] |
| COC(=O)Cn1cc(/C=C2\C(=O)NC(=O)N(c3ccc(OC)cc3)C2=O)c2ccccc21 | inconclusive [inhibitor, partial curve] |
| CCOC(=O)CCCNC(=O)COC(=O)c1cc2ccccc2cc1O | inconclusive [inhibitor, full curve, poor fit] |
| CN(C)S(=O)(=O)c1ccc(-c2csc(N/N=C/c3ccco3)n2)cc1 | inconclusive [inhibitor, partial curve] |
| CC(C)=CCC/C(C)=C/C(=O)O | inconclusive [inhibitor, partial curve] |
| CCCCC(OC(=O)c1cc2occc2n1C)C(=O)NCC1CCCO1 (stereo not drawn) | inconclusive [inhibitor, partial curve] |
| CC1=NN(S(=O)(=O)c2ccc(Cl)cc2Cl)C(=O)c2ccccc2O1 | inactive |
| CCCCN(C)Cc1c(C(=O)N2CCc3ccccc3C2)nc2ccc(Cl)cn12 | active: 44.7 µM |
| O=C(CN(c1ccccc1Cl)S(=O)(=O)c1ccccc1)N/N=C/c1ccccc1C(=O)O | inactive |
| O=C(C[n+]1ccccc1)Nc1ccccc1[N+](=O)[O-] | inconclusive [inhibitor, partial curve] |

| Compound | Potency |
| --- | --- |
| O=C(NN=C1CCCC1)c1[nH]c2ccc(Br)cc2c1-c1ccccc1 | inactive |
| O=C(NC(=S)NNC(=O)c1cnccn1)c1ccc(F)cc1 | inactive |
| COc1ccc(N2CCN(C(=O)CSc3ccccc3)CC2)cc1 | inconclusive [inhibitor, partial curve] |
| Cc1ccc(Cl)cc1N1C(=O)CC(Sc2ncccn2)C1=O (stereo not drawn) | active: 25.1 µM |
| O=C1CCCC(O)=C1C1NCCc2ccccc21 (stereo not drawn) | inconclusive [inhibitor, partial curve] |
| C/C(=N\Nc1nc2c(s1)CCCC2)c1ccccc1 | inconclusive [inhibitor, full curve] |
| Cc1ccn2c(Nc3ccc4c(c3)OCO4)c(-c3ccc(O)cc3)nc2c1 | inconclusive [inhibitor, partial curve] |
| C/C=C\C=C/C(=O)Nc1cccc(C2=NOC3(C2)C[C@@H](C(N)=O)N(C(=O)[C@H]2CCC(=O)N2)C3)c1 (stereo partly drawn) | active: 3.55 µM |
| Cc1cc(C)cc(Nc2ncc3c(n2)CC(c2ccco2)CC3=O)c1 (stereo not drawn) | active: 50.1 µM |
| NC(=O)NC(=O)C(Nc1ccc(N2CCCCC2)cc1)c1ccccc1 (stereo not drawn) | inconclusive [inhibitor, partial curve] |
| CCN(c1ccccc1)S(=O)(=O)c1cc(C(=O)NCc2ccco2)ccc1C | inconclusive [inhibitor, partial curve] |
| COc1cccc(C(=O)CN2CCN(S(=O)(=O)c3ccc(Cl)cc3)CC2)c1 | active: 22.4 µM |
| CC(C(=O)NC1CCCC1)N1C(=O)c2cccc3cccc1c23 (stereo not drawn) | inconclusive [inhibitor, partial curve] |
| Cc1ccc(/C=C2/NC(=O)N(Cc3ccccc3)C2=O)s1 | inconclusive [inhibitor, partial curve] |
| CCc1nnc(NC(=O)c2nc(S(C)(=O)=O)ncc2Cl)s1 | inconclusive [inhibitor, partial curve] |
| O=C(CCc1ccc(S(=O)(=O)N2CCOCC2)cc1)Nc1ccc(N2CCOCC2)cc1 | inconclusive [inhibitor, single point] |
| Cn1c(/C=C/c2ccc(Br)cc2)c([N+](=O)[O-])c(=O)n(C)c1=O | inconclusive [inhibitor, full curve] |
| CS(=O)(=O)N(CCc1ccccc1)CC(=O)N1CCN(Cc2ccccc2)CC1 | inactive |
| O=C(NCc1cccnc1)C(=O)Nc1cc2c3c(c1)CC(=O)N3CCC2 | inactive |
| O=C(NC(=S)Nc1cccnc1Cl)c1ccco1 | inconclusive [inhibitor, partial curve] |
| Cc1nnn(C23CC4CC(CC(CC(=O)Nc5cccc(F)c5)(C4)C2)C3)n1 | inactive |
| O=C1C(Cl)=C(NC(=O)c2ccccc2)C(=O)C(Cl)=C1NC(=O)c1ccccc1 | inconclusive [inhibitor, full curve, poor fit] |
| CCOC(=O)c1cccc(N2C(=O)C3C(C2=O)C2C=CC3C23CC3)c1 (stereo not drawn) | inactive |
| COC(=O)C1=C(C)Nc2nnnn2C1c1ccc(Cl)cc1Cl (stereo not drawn) | inactive |
| C(=N\N1CCN(Cc2ccccc2)CC1)/c1cccnc1 | inactive |

| Compound | Potency |
| --- | --- |
| CC(c1ccco1)N(C(=O)COc1ccc(Cl)cc1)c1ccccn1 (stereo not drawn) | inconclusive [inhibitor, full curve] |
| COCCC1CCCCN1C(=O)c1cccc(OC2CCN(C3CCCC3)CC2)c1 (stereo not drawn) | inconclusive [inhibitor, partial curve] |
| O=C(CCS(=O)(=O)c1cccc2nonc12)NCc1ccc(Cl)cc1 | active: 35.5 µM |
| CCCN1CNc2c(c(=O)[nH]c(=S)n2-c2ccccc2Cl)C1 | inconclusive [inhibitor, single point] |
| CC(C)(C)NNC(=S)Nc1ccc(S(=O)(=O)N2CCOCC2)cc1 | inconclusive [inhibitor, partial curve] |
| O=C(CCC(=O)Nc1nnc(C2CCCCC2)s1)Nc1ccccc1 | inconclusive [inhibitor, partial curve] |
| O=C(O)c1ccc2c(c1)C(=O)N([C@H](Cc1ccc(O)c(O)c1)C(=O)O)C2=O | active: 12.6 µM |
| CCc1cccc2c3c([nH]c12)C(CC)(CC(=O)O)OCC3 (stereo not drawn) | inconclusive [inhibitor, partial curve] |
| CCn1cc(C(=O)NC(=S)Nc2cccc(O)c2)cn1 | inconclusive [inhibitor, partial curve] |
| O=[N+]([O-])c1nn(-c2ccc3c(c2)OCCO3)n(O)c1=NC1CCCCC1 | inconclusive [inhibitor, partial curve] |
| Cc1ccc(CNC(=O)CCC2CCCN(Cc3cccc4cccnc34)C2)o1 (stereo not drawn) | inconclusive [inhibitor, partial curve] |
| CN(O)/C=C/C(=O)c1ccc(Br)cc1 | active: 8.91 µM |
| COc1ccc(Oc2cnn(-c3ccccc3)c(=O)c2Br)cc1 | inconclusive [inhibitor, partial curve] |
| CC(C)(C)n1nnnc1C(c1ccc(Cl)cc1)N(Cc1cccnc1)Cc1ccco1 (stereo not drawn) | inactive |
| COc1ccc(-c2[nH]ncc2C(=O)NCc2cccc(F)c2)cc1 | inactive |
| CNC(=O)c1ccsc1NC(=O)c1ccccc1 | inactive |
| O=C(NCc1ccc(F)cc1)C1CC(=O)N(Cc2ccco2)C1 (stereo not drawn) | active: 39.8 µM |
| Cc1oc(-c2ccc(Cl)cc2)nc1CN1CCCC(C(=O)N2CCN(C(=O)c3ccco3)CC2)C1 (stereo not drawn) | inconclusive [inhibitor, partial curve, poor fit] |
| O=C(NCc1ccc(Cl)cc1)C(=O)Nc1cccc(Br)c1 | inactive |
| CCC(=O)N1CCCc2cc(S(=O)(=O)CCC(=O)Nc3ccccc3C)ccc21 | inactive |
| COC(=O)c1nc2ccccc2s1 | inconclusive [inhibitor, partial curve] |
| O=C(N/N=C/c1ccco1)c1cc(C2CC2)[nH]n1 | inconclusive [inhibitor, partial curve] |
| O=C(c1ccco1)N1c2ccccc2Sc2ccccc21 | inconclusive [inhibitor, partial curve] |
